From article PMC12040169 (PLOS Biology, 2025)
The list shows a part of the results.

system: T1, C. trachomatis L2/434/Bu expressing GFP (CTL2-GFP); design: species or system HeLa; C. trachomatis total inclusion area by high-content imaging, normalised to DMSO; conditions: total inclusion area; 28.5 h, 10 µM; inhibitor
T1 construct: L2/434/Bu GFP intracellular growth in HeLa cells
Outline: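 Imaging read-out: GFP inclusions and Hoechst nuclei captured by high-content imaging after fixation. Inclusion area/number = chlamydial growth; nuclei count = host cell viability. MIC calculated per earlier method.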

SMILES	% of control remaining
CN1CCN(CCC(=O)N/N=C/c2c[nH]c3ccccc23)CC1 [CBK261502]	97.2805
Cc1cnc2[nH]c(C3CCCN(C(=O)c4cn(C)nc4C)C3)cc2c1 (stereo not shown) [CBK285170]	74.9652
COc1ccccc1N1CCN(C(=O)Nc2cccnc2)CC1 [CBK155617]	64.3538
COc1cc(CNCc2ccc(F)cc2)cc(Cl)c1OCC(N)=O [CBK270256C]	83.665
CC(C)C(=O)Nc1nc2c([nH]c(=O)n2[C@H]2C[C@@H](O)[C@@H](CO)O2)c(=O)[nH]1 [CBK201202]	150.701
CN(C)c1ncccc1OC1CCN(c2nnc(C(F)(F)F)s2)C1 (stereo not shown) [CBK304789]	68.5742
COc1ccccc1-n1nc(-c2ccncc2)nc1C(C)NS(C)(=O)=O (stereo not shown) [CBK306868]	89.18
CC(Cn1cncn1)C(=O)N1CCc2sccc2C1C (stereo not shown) [CBK282080]	79.9921
COc1ccc(-c2n[nH]c(=S)n2CCC(=O)NCCc2cc(C)n(-c3ccccc3)c2C)cc1 [CBK295632]	120.805
Cc1cccc(-c2ccc(CC3(C(=O)NC(C)C)CCN(C(=O)C4CC4)CC3)cc2)c1 [CBK285757]	67.381
C=CCn1c(Cc2csc(NC(=O)c3ccc(C)cc3)n2)n[nH]c1=S [CBK295292]	132.084
O=C(CCCOc1ccc(Cl)cc1)n1ccn(CCc2cccs2)c1=O [CBK106614]	102.475
O=[N+]([O-])c1nn(-c2ccc3c(c2)OCCO3)[n+]([O-])c1NCCN1CCN(c2ccccc2F)CC1 [CBK268314]	60.6836
CS(=O)(=O)NC1CCN(C2CCc3c(Cl)cccc32)CC1 (stereo not shown) [CBK305252]	54.7131
O=c1c2ccccc2nc2n1CCN(Cc1ccccc1)CC2 [CBK284790]	106.609
O=C1N=C(NC2CCCCCC2)SC1CC(=O)N1CCOC12CCCCC2 (stereo not shown) [CBK067355]	56.8078
CCN(CC)C(=O)CN1CCCN(c2cc(OCCN3C(=O)CCC3=O)ncn2)CC1 [CBK083266T]	135.1
Cc1cc(NC(=O)CN2CCN(Cc3ccc4c(c3)CCO4)CC2)on1 [CBK305610]	64.6704
O=C(O)c1cccc(N2C(=O)c3cccc4c(Cl)ccc(c34)C2=O)c1 [CBK299836]	78.8769
COCCCNC(=O)C1CCN(c2nc3c(-c4cccc(C)c4)csc3c(=O)[nH]2)CC1 [CBK215630]	129.947
CCCNC(=O)C1(Cc2ccccc2-c2ccccc2)CCN(C(=O)c2ccccc2)CC1 [CBK286275]	127.66
c1ccc(Oc2ccc(Nc3ccc(-c4cccc5cccnc45)cn3)cc2)cc1 [CBK037643]	89.9622
NCCCNc1ccc(-c2ccco2)cn1 [CBK036911]	119.423
CCc1c[nH]c(SCC(=O)c2cc(C)n(C3CCS(=O)(=O)C3)c2C)n1 (stereo not shown) [CBK306486]	61.0498
CC(C)n1nccc1C(=O)NC1CCN(Cc2cccc(F)c2)CC1 [CBK282596]	104.634
CS(=O)(=O)CCC(C(=O)O)N1C(=O)c2ccc(C(=O)O)cc2C1=O (stereo not shown) [CBK265719]	123.836
CCOc1ccc2nc(NC(=O)c3nc(SCc4ccccc4)ncc3Cl)sc2c1 [CBK269109]	105.296

SMILES	% of control remaining
COc1cc2c(cc1OC)C(CCCC#N)=[N+](C)C(C)(C)C2 [CBK008807I]	51.9262
O=C(NCc1nc(-c2ccccc2)no1)C(c1cccs1)c1cccs1 [CBK286340]	106.748
O=C(NC(c1ccc(Cl)cc1)c1cnccn1)C1CCN(C(=O)c2ccccc2)CC1 (stereo not shown) [CBK059634]	107.505
c1cc(-c2nccnc2Oc2ccc3c(c2)OCO3)ccn1 [CBK106726]	101.312
CC1CCc2nn(CCNC(=O)c3ccco3)c(=O)cc2C1 (stereo not shown) [CBK284481]	103.521
CC(C)CNc1nc(-c2cccc(N(C)C)c2)cnc1N [CBK063870]	102.064
Cc1ccc(Cl)c(OC(C)C(=O)N(CCCO)Cc2ccncc2)c1 (stereo not shown) [CBK305432]	85.6038
O=C(O)C1CCCN(C(=O)CCc2c[nH]c3ccccc23)C1 (stereo not shown) [CBK286925]	93.0906
CCn1c2ccccc2c2cc(CN3CCN(Cc4c[nH]c5ccccc45)CC3)ccc21 [CBK263167]	63.9803
Cc1ncncc1C(=O)NCC1(c2ccccc2F)CCCC1 [CBK281411]	79.7542
O=c1c2c3c(sc2n2c(S)nnc2n1Cc1ccccc1)CN(Cc1ccccc1)CC3 [CBK262973]	112.65
c1ccc(CSc2nnc(COc3cccc4ccccc34)n2Cc2ccccc2)cc1 [CBK267215]	102.085
O=C(CNC(=O)c1ccccc1F)N/N=C/c1cccs1 [CBK261953]	75.3917
CC(=O)Nc1ccc(CCNC(=O)NCc2nc(C3CC3)no2)cc1 [CBK306221]	89.0719
C=CCNS(=O)(=O)c1ccc(NC(=O)Cc2cccc3ccccc23)cc1 [CBK269379]	91.9187
COc1cccc(NC(=O)N[C@H]2[C@H](O)[C@@H](N3CCOCC3)[C@@H]3OC[C@H]2O3)c1 [CBK288821]	102.374
O=C(NCCCN1CCOCC1)c1ccccc1Br [CBK262602C]	97.7332
CCOC(=O)CNc1nc(OC)cc(OC)n1 [CBK093392]	89.218
Cc1cccnc1C1(O)CCN(C(=O)Cc2ccccc2F)CC1 [CBK283617]	117.758
Cc1ccccc1N1CCC(CNC(=O)CCn2nc(C)c(C)c2C)C1 (stereo not shown) [CBK307465]	105.053
CC(CC(=O)O)CC(=O)Nc1ccccc1C(=O)O (stereo not shown) [CBK265671]	117.278
CCCCC(c1cccnc1)N(C)C(=O)c1cc(C)c(CC)n(C)c1=O (stereo not shown) [CBK306999]	89.0968
CNC1CCN(S(=O)(=O)c2sc3ccc(C(C)C)cc3c2C)C1 (stereo not shown) [CBK170067]	46.9509
COC(=O)c1ccc2c(=O)n(CC(C)O)c(SC3CCOC3=O)nc2c1 (stereo not shown) [CBK304997]	36.4695
O=C(NCCc1cccs1)Nc1cc(C(F)(F)F)cc(C(F)(F)F)c1 [CBK043718]	68.8518
COc1ccc([N+](=O)[O-])cc1NC(=O)c1ccc(-c2cc3ccccc3oc2=O)cc1 [CBK267325]	99.3544
O=c1[nH]c2ncc(-c3cccnc3)nc2n1CCN1CCOCC1 [CBK065070]	79.7267

SMILES	% of control remaining
CCn1cc(C(=O)N2CCOC(C(=O)O)C2)c(=O)c2ccc(C)nc21 (stereo not shown) [CBK307165]	64.5964
O=C(CN1CCCC1Cn1cccn1)N1CCCc2ccccc21 (stereo not shown) [CBK281971]	103.73
Cc1cc(Cl)c(S(=O)(=O)Nc2ccc(C#N)cc2)cc1OCC(N)=O [CBK266560]	96.8363
Cc1ccc(-n2c(=O)[nH]cc(C(=O)Nc3ccc(C)c(F)c3)c2=O)cc1C [CBK287550]	84.6706
COc1ccc(CNC(=O)c2sc3nc4c(c(C(F)(F)F)c3c2N)CCC4)cc1OC [CBK074568]	86.6557
Cc1cccc(C)c1NC(=O)c1nccnc1C(=O)O [CBK260915]	94.5236
O=C(CSc1ccc2nnc(-c3ccccc3)n2n1)NCc1ccco1 [CBK287514]	117.33
O=[N+]([O-])c1ccc(Sc2cccc(F)c2)nc1 [CBK002905]	86.7627
COc1cc(CNc2ccccc2Cl)ccc1OCC(=O)O [CBK287045]	107.333
c1ccc(OCCN2CCC(Oc3cncc(OCCN4CCOCC4)n3)C2)cc1 (stereo not shown) [CBK084499]	78.8736
COc1ccc(C(=O)C2=C(O)C(=O)N(Cc3cccnc3)C2c2cccc(OC)c2OC)cc1C (stereo not shown) [CBK264906]	113.19
COc1ccc(CCNC(=S)NN2CCN(C)CC2)cc1OC [CBK266884]	95.2387
O=C1NC(=O)C(CCCCN2CCCc3ccccc32)N1 (stereo not shown) [CBK143965]	97.9631
O=C1N[C@@H]2CCN(C(=O)C3CC3)[C@@H]2C(=O)N1c1ccc(F)cc1 [CBK289324]	111.387
O=C(Nc1ccc2ncccc2c1)c1cccnc1 [CBK159820]	91.31
Cc1cc(C)n(C2CCN(Cc3ccc(-n4ccnc4C)cc3)CC2)n1 [CBK281976]	98.3152
NC(=O)c1[nH]nc(C2OC(CO)C(O)C2O)c1O (stereo not shown) [CBK201236]	42.592
Cc1nn(Cc2ccc(C(=O)N3CCN(Cc4ccccc4)CC3)o2)c(C)c1Br [CBK265796C]	96.5751
Cc1ccc(C(=O)NCC2COc3ccccc3O2)c(N2CCOCC2)n1 (stereo not shown) [CBK076519]	97.9622
CCn1cc(NCc2ccccc2Cl)c(C(=O)O)n1 [CBK286807]	95.3504
CCn1cc(C(=O)N2CCCC2c2nc3ccccc3[nH]2)c(C)n1 (stereo not shown) [CBK283777]	98.8511
CC(C)[C@H](CO)n1c(=O)[nH]c2ncc(-c3cccc4ccccc34)nc21 [CBK064985]	120.357
COc1cc(Nc2cncc(-c3ccc(O)cc3)n2)c(Cl)cc1C(=O)NCCCN(C)C [CBK122651]	72.7985
Cn1c(=O)c2c(ncn2CC(=O)Nc2ccc3ccccc3c2)n(C)c1=O [CBK133722]	67.9287
O=C1CCCN1CCC(=O)N1CCCC1c1nc2ccccc2[nH]1 (stereo not shown) [CBK283981]	74.15
